Laboratory results: the supplement of paper PMC11417369
The other results are listed elsewhere or left out.

The sequences below were run on PfHDP1 homeodomain (GST-tagged) (assay: gcPBM binding intensity (ln(normalized median fluorescence intensity)); higher = stronger DNA binding).
Method in brief: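 The highest Masliner-normalised natural-log median intensity across replicate spots of either probe orientation is reported as binding intensity. GST-tagged P. falciparum DNA-binding domains expressed in E. coli were applied for 1 h to an Agilent 4 × 180k array of primer-extended double-stranded 36-bp intergenic genomic probes plus negative controls, and bound protein was detected with Alexa488 anti-GST antibody and scanned at 488 nm.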

Sequence	gcPBM binding intensity (ln)
AGTGTGTGTGCGTATAGTACATATACATATATACAC [XGTACX_site6882]	6.87
ATAATACAAAATACATGTACAAATATTTTTCATATT [XGTACX_site1721]	6.43
TGTGCACGCATATACACACACAAATACAATGATAAA [CACACA_site6656]	9.39
AACGGGGCCAAGAAATATAAATAATCAAAACAAAAA [XGTACX_negctrl_site320]	6.32
TTTCTTTATTTTTTTTTTTTTTTTTTTCCTTTTTTT [TGCATGCA_negctrl_site231]	5.98
TGTTATATTTGTGCGTGTACACATTTGAAAAAATAT [XGTACX_site3796]	7.25
GTTCTTTCAAGTTATACACACCAAAAAAAAAAAAAA [CACACA_site7435]	6.52
AATATCATCAAACGCACACATACATAAATATATTAT [CACACA_site2174]	7.74
TATTTATATAGACACACACACATATATTTATATTTT [CACACA_site7240]	6.72
ACTTAAATAATACATACACACATGTACATACAGAAA [CACACA_site1595]	7.03
TTTACATTTAATAAAAGTACTTATTTCATATACATA [XGTACX_site659]	6.34
AAGGAAAAACCATTCGCACACACACCGAATATATAA [CACACA_site8403]	6.87
TATATCAAATTCTAAACATGCACAAAAAACTTATAA [TGCATGCA_site510]	8.27
ATACCAATAATATACATACACACATAAAGGTTTATA [CACACA_site314]	6.65
AAGAAAAACTAAAGAGTTCTGTTCATATCTCTTTGG [TGCATGCA_negctrl_site549]	5.77
TAATTCTTTATAATAACACACATTCATATACAATAA [CACACA_site2499]	6.63
GGTATTACCTGTTTGTTATGTAGATGTTGCTAGGAT [GTGCAC_negctrl_site736]	6.92
AATATACACCCGTGTACACAAATATTTACAAAACGT [CACACA_site4786]	7.13
AAAAGGAATGAAAATTCACACAACTATAAATACATA [CACACA_site5337]	6.34
GTTACACCAACAAACACACACACACCCACCCACAAA [CACACA_site2427]	7.42
AATTTAAAGTTTTTTTTTTTTTTTTTTTTTTTTTTG [CACACA_negctrl_site1082]	5.92
TGTATTATAATATTATGTACTTATAAATTTTATATT [XGTACX_site6432]	6.5
ATATTATTATAAAGTGGTACAATAAATGGTATTATA [XGTACX_site391]	6.23

Sequence	gcPBM binding intensity (ln)
TGGGTGGTAAAAATGTGTACATAAAAAAATAATGTT [XGTACX_site2235]	7.11
TCTCACATTCTTATGGGTACACATGAGAAATTATAA [XGTACX_site6799]	6.45
TTATTGGTTATATAAAGTACATTTGAAATATAATTG [XGTACX_site6553]	6.07
ATAATAATTTTATGCACACAGAAAAATACAAGGTTA [CACACA_site3510]	10.1
TTTTCTTGGTATATGATTTATCCTAAATAAGTAAAT [CACACA_negctrl_site294]	6.22
TTGCCTGACTTGTTCACACATATTTATGATATACAT [CACACA_site5783]	6.56
TTAGAATTTAGAGAAGTGCATATTAAGTTACGAATT [GTGCAC_site9861]	8.56
AAAAAAAATATATATATTAAAGTTTTAATTTTTATA [CACACA_negctrl_site497]	6.14
ATTATATATATATATAGTACTTTTTTTTTTTTTTTT [XGTACX_site8801]	6.41
TATATATATGGGTTTACACACAATAATGAATTAAAA [CACACA_site915]	6.34
CCCATGCATTTTTGCACACACATATATTTATAAATA [CACACA_site6785]	10.7
CCCACAGACGGACACACACACACATATATATATATA [CACACA_site4352]	9.18
TCAAGTTTATATTAACTATTTATGAAAAAAAAAAGA [CACACA_negctrl_site902]	6.32
TATAAGGCAATAATAGTGCACTAAGATATATAATGA	10.7
ATATATTACAAATGGAGTACTAAAAATATTCTATAT [XGTACX_site6669]	6.67
CTAAAAATTTTAATTGCACACCACGTTGGACTATTT [CACACA_site1489]	9.83
TTACACTAAATATGTTCACACATTTTTTCCATCATA [CACACA_site4647]	6.59
TACAAAAGTTAAACATGTACTTAATTATATGTTTTT [XGTACX_site2852]	6.12
ATAAAAATGGATGAATATAAAAAAAAAAAAATATAT [CACACA_negctrl_site182]	6.63
GAATATATAAGAACAAATATGGCTTAGAAAAAAAAA [TGCATGCA_negctrl_site451]	6.05
AAAAAAAAATAAAAATGTACATATATAATATTATAT [XGTACX_site71]	6.95
AAAAAATGGCTAGTTTGTACACAAAAGTTATTGCAT [XGTACX_site5381]	6.32
ATATAATATACTTATTGTACTTATTTAAAATACTAA [XGTACX_site4266]	6.18

Sequence	gcPBM binding intensity (ln)
AAGATAAAATTATGCACACATACGAATAATTTTAAA [CACACA_site1705]	10.1
TTTCTCAATTCTTAGAGTACATAAATAAAAAAAAAA [XGTACX_site7639]	6.21
CATATATATAAATACACACACACACCCCTTATAATT [CACACA_site4064]	7.18
TAGGAGCCGAAACACACACACAAAAAAAAAAAAAAA [CACACA_site1731]	6.36
TTTTACAATAACAATACACACTATAATATATATATA [CACACA_site4893]	8.26
AAAAGAATTTGAAGTCGTACAATATCTATTATATGA [XGTACX_site8275]	6.25
TGCATTTTCCTATTTGCATGCAATTAAAATATAGAA [TGCATGCA_site862]	7.44
GATTATTTAAAATATACATGCGCGCACATATGCATA [TGCATGCA_site630]	7.74
AACATATATACAGTAACACACACAAAAAAATATGAA [CACACA_site9323]	7
ATGTTTTAATGAGGTTTGCACTATATTTTAATGAAC	8.81
TTAACTTTTATATAGTGTACAAATAAATGCATACAG [XGTACX_site5958]	6.86
TTATTATTTAACATGTGGACACAAAAATTTAAGGGT [XGTACX_site4638]	6.75
AAAAAACAAAAACACACACACACATATATATATATA [CACACA_site3654]	9.16
ATCACTAACATGTGTTGTACATAAAATTTGTTTGTT [XGTACX_site2207]	6.57
TGAACACAGACAAATACACACAAAAAAAATAAATAA [CACACA_site4298]	6.62
TATTATGTATAAAGAAGTACTTTTTTTTTTTTTTTC [XGTACX_site201]	5.82
TGCAAATTTAACAAAAAAAAAAAAAAAAAAAAAAAA [GTGCAC_negctrl_site64]	6.38
TCTACTACTTAATGGAGTACTAGCTTCATAATATTA [XGTACX_site7030]	5.97
TTTGAAATGATATATAAACACACATATATATATATA [CACACA_site9170]	9.18
CTAACAACCAAACGCACACACACAAAAAAAAAAATA [CACACA_site400]	7.71
AACAACTATTAATTTACACACATGTATATATCTTAC [CACACA_site7459]	6.83
TATTAAAAGGTGAGTACACACATATATGCGTATATA [CACACA_site2102]	6.65
ATATTGAATTCCAACACATGCAAAACTTTCGGTTTT [TGCATGCA_site485]	6.88

Sequence	gcPBM binding intensity (ln)
TATTTTACACATTTACGTACATAAATATATATATAT [XGTACX_site8788]	8.72
AGACATTTTTAAGCAAAACATTCATCATCTTATAAT [CACACA_negctrl_site1539]	6.51
TACGCACAAAAATATACACACACACCGATATATTTA [CACACA_site9213]	7.51
TACATATATATTTGTTCACACACACCCAAAAAAAAA [CACACA_site8788]	6.97
TCTATGTAGTTTTTATGTACTAAATAAATAAATAAA [XGTACX_site2599]	6.29
TAGAAGCAGAAACACACACACATACATACACATACA [CACACA_site1467]	6.92
ACTATTAACAGTGTAGTGCAAAAAGGTTAATTATTA	9.67
TAAATGTCCTTATTTGCACACACACCGATAAGAAAT [CACACA_site5723]	10
GCATTCATTTTTAATACACACAAAAAAAAAATAAAA [CACACA_site2408]	6.64
TTTTCAATATATATTTGTACTTTATTTTATGATATT [GTGCAC_negctrl_site732]	6.71
GTGATACGCTATAGGACACACGCTTAATAATTATAA [CACACA_site1694]	6.21
AAATTGTCAAAACACGCACACACATATACATAATAA [CACACA_site1743]	7.31
ATCATAAATTATTATACACACAATACGTGACCTATT [CACACA_site1906]	7.12
TTCTTTTATAAAAGTAGTACAATTATATTGTAATTA [XGTACX_site2855]	6.23
TCTTTTATATTGTAGAGTACATATTTTCAATATATA [XGTACX_site5586]	6.17
AAAAAAAAAAAAGGCACACAAACATATGTAGACATA [CACACA_site2284]	6.61
TCGTGTGTAATATTATATATATATATATAATATATA [TGCATGCA_negctrl_site289]	7.48
TTTTAAGGTGTGAAGGTGCAAAAAGGTAAATAGGAA	10.3
CACAAACACCCAAACACACACACACCGACATACATA [CACACA_site4410]	6.87
AAAATACATAAACACACACACACACCGATATATATA [CACACA_site9186]	7.14
